In the assay the target is T1, GPNMB (Homo sapiens, UniProt Q14956).
T1 construct: V5His; made in house
T1 sequence (Q14956 23-492): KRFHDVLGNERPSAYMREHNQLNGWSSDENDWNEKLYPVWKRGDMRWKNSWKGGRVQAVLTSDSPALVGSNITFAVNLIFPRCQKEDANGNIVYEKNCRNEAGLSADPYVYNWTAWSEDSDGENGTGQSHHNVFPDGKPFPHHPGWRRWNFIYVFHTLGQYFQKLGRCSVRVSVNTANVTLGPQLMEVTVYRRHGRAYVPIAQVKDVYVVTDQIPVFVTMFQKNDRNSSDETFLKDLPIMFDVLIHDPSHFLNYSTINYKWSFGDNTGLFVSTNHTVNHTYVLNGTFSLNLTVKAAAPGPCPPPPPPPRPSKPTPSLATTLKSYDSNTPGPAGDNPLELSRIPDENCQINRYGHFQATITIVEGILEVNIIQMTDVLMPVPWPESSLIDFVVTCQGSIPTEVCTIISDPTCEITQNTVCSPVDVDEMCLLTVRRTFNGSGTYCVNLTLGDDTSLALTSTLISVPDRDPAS
The assay is described as follows: Epitope binning of anti-GPNMB antibodies (competitive binding). Particulars: six anti-GPNMB antibodies, three bins. The text has this:
Certain antibodies, described herein were binned in accordance with the protocol described in U.S. Patent Application Publication No. 20030157730. […] Competitive binding by antibodies from […] supports antibody specificity for similar or adjacent epitopes. Non competitive binding supports antibody specificity for unique epitopes.
Three bins were created to further test the binding of six anti-GPNMB antibodies. Bin 1 included GPNMB antibodies (1.2.1), (1.10.1), and (2.22.1). Bin 2 included GPNMB antibodies (2.3.1) and (1.15.1), and Bin 3 included GPNMB antibody (2.10.1). The results of the binning assays are provided below in Tables 4 and 5.

B1: Mab2.3.1: human anti-GPNMB antibody; VH SEQ ID NO: 200, VL SEQ ID NO: 209 (antibody, listed as Homo sapiens, V domains shown)
VH: [no letters for about 100 residues]DFFGSGSLLYFDYWGQGTLVTVSSA
VL: DIVMTQTPLSLSVTPGQPASISCKSSQSLLHSGGKTYLYWYLQRPGQPPQLLIYEVSNRFSGVPDRFSGSGSGTDFTLKISRVEAEDVGVYYCMQSIHLPLTFGGGTKVEIKR
B1: the Epitope bin result is “Bin 2”.

The values above are taken from patent US20140314780A1, “Compositions Using Antibodies Directed to GPNMB and Uses Thereof” (Celldex Therapeutics, Inc., priority 2008, published 2014).
